Hit rate of the full screen: of about 45,000 compounds, about 65 (0.1%) were called active. The call rests on the fitted dose curve; in most records, active means well fitted activation curve with a large enough effect; inconclusive means small, poorly fitted or top-dose-only effect; inactive means no such curve, though single readings can be large or run the other way. The list shows a part of the results.
biological target: Galactocerebrosidase (Homo sapiens) (UniProt P54803); test: A Novel Cell-Based Assay to Identify Small Molecules for B -Galactocerebrosidase; details: 145M-Twi-hGALC-G270D cells (Twitcher mouse brain line with human GALC G270D), HMU-beta-Gal fluorescence, 48 h; series mostly up to 57.5 µM; activation: at the top concentration; further: 0% is about no effect; nearly all actives have a fitted effect of over 65% in size
Outline: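 Brain-derived Twitcher mouse 145M-Twi cells stably expressing human GALC-G270D or wild-type GALC, treated live, then residual GALC activity read by fluorescence of HMU-b-Gal substrate (0.1 mM final) in citrate-phosphate buffer pH 5.2 with sodium taurocholate. Signal increase indicates enhancement.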

Chain of UniProt P54803 (P54803 whole entry, looked up): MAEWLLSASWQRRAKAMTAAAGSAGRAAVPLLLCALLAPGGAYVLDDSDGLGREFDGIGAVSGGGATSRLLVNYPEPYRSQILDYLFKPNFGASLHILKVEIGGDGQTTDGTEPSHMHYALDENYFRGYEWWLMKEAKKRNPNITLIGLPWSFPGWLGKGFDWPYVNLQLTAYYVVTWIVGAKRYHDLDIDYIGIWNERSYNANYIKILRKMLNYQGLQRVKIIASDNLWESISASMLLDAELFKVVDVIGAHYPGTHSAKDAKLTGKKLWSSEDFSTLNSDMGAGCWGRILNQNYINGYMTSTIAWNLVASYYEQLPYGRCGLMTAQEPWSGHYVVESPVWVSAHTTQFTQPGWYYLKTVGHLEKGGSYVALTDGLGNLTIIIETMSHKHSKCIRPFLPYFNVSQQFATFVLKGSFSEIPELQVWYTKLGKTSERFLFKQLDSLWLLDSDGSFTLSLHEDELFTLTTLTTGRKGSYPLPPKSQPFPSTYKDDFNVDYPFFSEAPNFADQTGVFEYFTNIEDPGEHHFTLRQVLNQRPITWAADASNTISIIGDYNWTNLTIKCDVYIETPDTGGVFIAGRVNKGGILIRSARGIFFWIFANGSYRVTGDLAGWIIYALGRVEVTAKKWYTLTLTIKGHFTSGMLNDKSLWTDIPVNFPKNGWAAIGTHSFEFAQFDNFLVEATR

activation, inactive:
COc1ccc(Cl)cc1NC(=O)c1sc(-n2nc(C)c(Cc3ccccc3)c2C)nc1C -7.59%
CCc1ccc(CN(Cc2ccco2)C(=O)c2ccc(OC)cc2)cc1 -9.17%
COCCCNC(=O)CSC1=Nc2ccccc2C2=NC(CCC(=O)NCc3ccccc3OC)C(=O)N12 (stereo unspecified) -10.8%
COc1ccc(N2CCN(c3oc(/C=C/c4ccc(F)cc4)nc3C#N)CC2)cc1 3.91%
CCOc1cc(C(=O)N2CC(=O)Nc3ccc(C)cc3C2c2ccccc2)cc(OCC)c1OCC (stereo unspecified) -4.85%
Cc1nnc(SCc2ccccc2)c2cc3sccc3n12 -8.85%
CCc1ccc(CNC(=O)CCC(=O)N2Cc3cccc(OC)c3Oc3ncccc32)cc1 -4.96%
COC(=O)c1cccnc1 -9.54%
Cc1ccccc1NC(=O)CSc1nnc(C)c(=O)[nH]1 -22.4%
CCOc1cccc(CNC(=O)c2ccc(N3CCCC3)c(NC(=O)NCc3ccc(F)cc3)c2)c1 -8.19%
Nc1c(-c2nc(-c3cccs3)no2)nnn1-c1ccccc1Cl -12.6%
Cc1ccc(Cl)cc1N(C)C(=O)Cn1nc(Cc2cccnc2)c2ccccc2c1=O -28.7%
O=C(NCc1ccco1)C1CCN(C(=O)N2CCOc3ccccc32)CC1 -14.7%
Cc1cc(C)cc(OC(C)C(=O)Nc2nonc2-c2ccc(Br)cc2)c1 (stereo unspecified) -11%
O=C(Nc1cccc(C(=O)OCc2cc(=O)n3nc(C4CC4)sc3n2)c1)c1ccccc1 10.5%
Cc1ccc(C)c(Cn2c3ccccc3c3cnn(CC(=O)NCCCc4ccccc4)c(=O)c32)c1 5.2%
CCOc1ccc(-c2nonc2NC(=O)c2oc3c(C)c(C)ccc3c2C)cc1OCC -26.4%
COCCn1c(CNC(=O)c2ccc(C)cc2)nc2cccnc21 -9.3%
COc1ccccc1-c1nc2c3c(-c4ccccc4)c(-c4ccccc4)oc3ncn2n1 -12.7%
CCN(CC)CCOC(=O)c1ccc(NC(=O)Cn2ncc3c([nH]c4ccc(C)cc43)c2=O)cc1 -6.42%
Cc1ccccc1CS(=O)(=O)CC1Nc2ccc(C(=O)NCc3ccc(Cl)cc3)cc2NC1=O (stereo unspecified) -11%
Cc1ccc(-n2nc(C)c(C(=O)NCCCN3CCN(c4ccc(F)cc4)CC3)c2-n2cccc2)cc1 -25.9%
CCN(c1cccc(C)c1)S(=O)(=O)c1nnc(NC(=O)C2CCCCC2)s1 -10.1%
O=C(CSC1=Nc2ccccc2C2=NC(CC(=O)NC3CCCCC3)C(=O)N12)Nc1ccc(F)cc1 (stereo unspecified) -17.9%
O=C(CSc1nc2ccccc2nc1Cc1ccc(Cl)cc1)N1CCc2ccccc21 25.4%
Cc1ccc(-c2nc(C)c(CCNC(=O)c3ccco3)s2)cc1 -7.91%
CCc1ccc(CNC(=O)CN2C(=O)c3cccnc3Oc3ccc(Cl)cc32)cc1 -0.574%
CCOc1ccc(NC(=O)CSc2ncc3c(n2)-c2ccc(Cl)cc2N(Cc2ccccc2)S3(=O)=O)cc1 -15.1%
COc1ccc(-c2nc3sc(CCNC(=O)c4cc(OC)c(OC)c(OC)c4)c(C)n3n2)cc1 -17.2%
COC(=O)c1nc2n(n1)C(c1cccc(Cl)c1)C(C(=O)Nc1ccccc1OC)=C(C)N2 (stereo unspecified) -9.45%
Cc1cccc(C)c1NC(=O)C(NS(=O)(=O)c1ccc2c(c1)CCC(=O)N2)c1ccccc1 (stereo unspecified) -16.9%
Cc1c2cnn(-c3ccccc3)c(=O)c2c(C)n1CCCC(=O)Nc1cc(F)ccc1F 2.07%
CCOc1ccc(C2c3[nH]c4ccccc4c3CCN2C(=O)CCc2ccccc2)cc1 (stereo unspecified) -2.29%
COc1ccc(C)cc1NC(=O)c1oc2ccc(S(=O)(=O)N3CCCCC3)cc2c1C -4.21%
Cc1ccc(C)c(N2CCN(S(=O)(=O)c3cc(Br)cc4c3N(C(=O)C3CC3)CC4)CC2)c1 -8.05%
COc1ccc(-n2c(SCC(=O)Nc3ccc(Cl)c(C)c3)nc3n[nH]c(C)c3c2=N)cc1 -16%
Cc1ccc2[nH]c(CSc3nnc(NC(=O)COc4ccccc4)s3)cc(=O)c2c1 -5.28%
CCOC(=O)c1c(NC(=O)c2ccc(S(=O)(=O)N3CCC(C)CC3)cc2)sc2c1CCN(C)C2 1.61%
NC(=O)c1c(NC(=O)c2nc(SCc3ccccc3F)ncc2Cl)sc2c1CCCC2 -7.84%
Cc1ccc(Sc2c(C)nn(C(=O)COc3ccccc3Br)c2C)cc1 -23.9%
COc1cc(C(=O)NCCCc2nc3ccccc3n2CC(C)C)cc(OC)c1OC 3.64%
O=C(C1CCN(S(=O)(=O)c2ccc(Br)s2)CC1)N1CCN(c2cccc(Cl)c2)CC1 -13.9%
Clc1ccc2c(c1)Nc1ccccc1S2 -12.7%
CCOC(=O)c1ccc(NC(=O)CCn2c(=O)c3cccn3c3ccccc32)cc1 -13.5%
CCOc1ccc(CCNC(=O)c2sc3nc4n(c(=O)c3c2C)CCCC4)cc1OCC -26.4%
CCS(=O)(=O)N1CCc2cc(C(=O)Nc3ccc(OC)c(Cl)c3)ccc21 -14.2%
CCCCn1cc(S(=O)(=O)c2ccc(C)c(C)c2)c(=O)c2cc(F)c(N3CCCC(C)C3)cc21 (stereo unspecified) -14.9%
COc1ccc(OC)c(CNC(=O)c2nn(-c3ccc(OC)c(Cl)c3)c(=O)c3c2c2ccccc2n3C)c1 -19.6%
CCOc1ccc2nc(N3CCCC(C(=O)Nc4c(C)cccc4C)C3)sc2c1 (stereo unspecified) -13.9%
Cc1cc(C)cc(-n2ccnc2SCC(=O)Nc2nnc(C)s2)c1 -18.5%
CCOC(=O)c1sc2ncn(CC(=O)Nc3ccc(N(C)C)cc3)c(=O)c2c1C -7.67%
O=C(Nc1nc2ccc(S(=O)(=O)N3CCCC3)cc2s1)c1cccc(F)c1 -5.3%
CCC(=O)Nc1c(C(=O)N2CCN(c3ccc(F)cc3)CC2)oc2ccccc12 -10%
COc1ccc(S(=O)(=O)n2nc(C)c(S(=O)(=O)N3CCC(C)CC3)c2C)cc1C 4.98%
COc1ccc(CCNS(=O)(=O)c2ccc3c(c2)CC(C)N3C(=O)C2CCC2)cc1OC (stereo unspecified) -12.3%
CCOc1ccc(CC(=O)NCCc2csc(-c3ccc(C)cc3)n2)cc1 -9.07%
CCOc1ccc(N(C(=O)CC(C)C)S(=O)(=O)c2ccc3c(c2)oc(=O)n3C)cc1 1.95%
Cc1ccc(-c2nc3scc(CCNC(=O)Cc4ccc(Cl)cc4)n3n2)cc1 -9.57%
Nc1nc2ccccc2n1Cc1ccc(F)cc1 -7.28%
COc1ccc(CCNC(=O)CCCn2c(=O)c3ccccc3n(Cc3cccc(Cl)c3)c2=O)cc1OC 3.87%
Cc1ccc(NC(=O)Cn2cc(C(=O)C3CC3)c3ccccc32)cc1 -27.9%

— PubChem BioAssay AID1159614 (National Center for Advancing Translational Sciences (NCATS), 2016)
